The source of these data is publication PMC5892938.

The other results are listed elsewhere or left out. At the low end of the ranking the order means little.

In the assay the target is GST-SBP-SLBP (stem-loop binding protein) (UniProt Q14493). The assay can be described thus: targeted RNA Bind-n-Seq.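 Note: DESeq read counts versus GST-SBP nonspecific binding control pulldown.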 To be noted: RBNS binding buffer: 25 mM Tris pH 7.5, 150 mM KCl, 3 mM MgCl2, 0.1% Tween, 0.5 mg/mL BSA, 1 mM DTT; 27 nM protein, 750 pM RNA pool; temperature not stated; high values mean tight binding.
As to “GGUCACGUCUCAAUCAACUCUUUCUCCAGGGAAACCCCUGGCAAUUUCAACAGCUCGCAGUCAAG”, the binding signal (log2 fold change) is -0.122.
To “GGUCACGUCUCAAUCAACUCACAAGAGGGGGGGAAAACCCCUUUACCCUCAACUUCAACAGCUCGCAGUCAAG” belongs -0.384; to “GGUCACGUCUCAAUCAACUCUACUUCCAGGGAAACCCCUGGUUAUCUCAACAGCUCGCAGUCAAG”, -0.332; to “GGUCACGUCUCAAUCAACUCAACGCCAGGAGUUUUCUCCUGUUUUUUCAACAGCUCGCAGUCAAG”, -0.0716.
As for “GGUCACGUCUCAAUCAACUCUUCCUCCAGGGAAAUCCCUGGCAAUUUCAACAGCUCGCAGUCAAG”, the binding signal (log2 fold change) was -0.31.
The figure for “GGUCACGUCUCAAUCAACUCAUUCUCAGGAGUUUGCUCCUGCUAAUUCAACAGCUCGCAGUCAAG” is 0.0828; for “GGUCACGUCUCAAUCAACUCUUUUCCCAGGGAAAUCCCUGGUUAUGUCAACAGCUCGCAGUCAAG” it is -0.00159.
The figure for “GGUCACGUCUCAAUCAACUCAUUUCCCAGGGAAACCCCUGGUUUACUCAACAGCUCGCAGUCAAG” is -0.108; for “GGUCACGUCUCAAUCAACUCACUCGAGGGGGGGAAAACCCCUUUACCCUCAAACUCAACAGCUCGCAGUCAAG” it is -0.435; for “GGUCACGUCUCAAUCAACUCUUUUUCAGGAGUUUCCUCCUGCAAUCUCAACAGCUCGCAGUCAAG” it is 0.0978.
Regarding “GGUCACGUCUCAAUCAACUCAUCCUCCAGGGAAAUCCCUGGUUUUCUCAACAGCUCGCAGUCAAG”, the binding signal (log2 fold change) stood at 0.027.
“GGUCACGUCUCAAUCAACUCUUUUCCAGGAGUUUUCUCCUGUAAUGUCAACAGCUCGCAGUCAAG”: the binding signal (log2 fold change) is 0.0317.
For the sequence “GGUCACGUCUCAAUCAACUCCUAGGAGGGGGGGAAAACCCCUUUACCCUCAUCUUCAACAGCUCGCAGUCAAG”, the binding signal (log2 fold change) is -0.237.
The figure for “GGUCACGUCUCAAUCAACUCAUCUCCCAGGGAAACCCCUGGCUUUCUCAACAGCUCGCAGUCAAG” is 0.067.
The figure for “GGUCACGUCUCAAUCAACUCAACUCCAGGAGUUUACUCCUGCAUUCUCAACAGCUCGCAGUCAAG” is 0.0676; for “GGUCACGUCUCAAUCAACUCUUCUCCCAGGGAAACCCCUGGCUUUUUCAACAGCUCGCAGUCAAG” it is -0.194; for “GGUCACGUCUCAAUCAACUCUUUUCCCAGGGAAACCCCUGGCUUACUCAACAGCUCGCAGUCAAG” it is -0.108.
The figure for “GGUCACGUCUCAAUCAACUCUAUAGAGGGGGGGAAAACCCCUUUACCCUCAUCCUCAACAGCUCGCAGUCAAG” is -0.359.
For the sequence “GGUCACGUCUCAAUCAACUCUUCUCCCAGGGAAAUCCCUGGUUAAUUCAACAGCUCGCAGUCAAG”, the binding signal (log2 fold change) is -0.37.
The figure for “GGUCACGUCUCAAUCAACUCAUUCUCAGGAGUUUUCUCCUGUUAUCUCAACAGCUCGCAGUCAAG” is -0.0878; for “GGUCACGUCUCAAUCAACUCAAUUCCCAGGGAAAACCCUGGCUUACUCAACAGCUCGCAGUCAAG” it is -0.245.
The figure for “GGUCACGUCUCAAUCAACUCAUCCUCCAGGGAAAGCCCUGGCAAAUUCAACAGCUCGCAGUCAAG” is -0.25; for “GGUCACGUCUCAAUCAACUCCAUAGAGGGGGGGAAAACCCCUUUGCCCUCGUAAUCAACAGCUCGCAGUCAAG” it is -0.407.
To “GGUCACGUCUCAAUCAACUCAACUUCAGGAGUUUCCUCCUGUUAUCUCAACAGCUCGCAGUCAAG” belongs 0.0369.
Consider “GGUCACGUCUCAAUCAACUCAUCCCCCAGGGAAACCCCUGGCAUUUUCAACAGCUCGCAGUCAAG”, for which the binding signal (log2 fold change) is -0.0369.
To “GGUCACGUCUCAAUCAACUCAUCUCCAGGAGUUUGCUCCUGCAUUCUCAACAGCUCGCAGUCAAG” belongs 0.188.
To “GGUCACGUCUCAAUCAACUCCUCAGAGGGGGGGAAAACCCCUUUACCCUCACUCUCAACAGCUCGCAGUCAAG” belongs -0.0768; to “GGUCACGUCUCAAUCAACUCAUCCCCAGGAGUUUUCUCCUGCAUACUCAACAGCUCGCAGUCAAG”, 0.212.
To “GGUCACGUCUCAAUCAACUCUUCCCCAGGAGUUUUCUCCUGCUAACUCAACAGCUCGCAGUCAAG” belongs -0.00891; to “GGUCACGUCUCAAUCAACUCAAUCUCAGGAGUUUCCUCCUGCAAUUUCAACAGCUCGCAGUCAAG”, 0.0636; to “GGUCACGUCUCAAUCAACUCUUCGUCAGGAGUUUCCUCCUGUUUUUUCAACAGCUCGCAGUCAAG”, 0.137.
As for “GGUCACGUCUCAAUCAACUCAUAAGAGGGGGGGAAAACCCCUUUACCCUCCGAAUCAACAGCUCGCAGUCAAG”, the binding signal (log2 fold change) was 0.123.
The figure for “GGUCACGUCUCAAUCAACUCAUCCUCAGGAGUUUUCUCCUGUUAUUUCAACAGCUCGCAGUCAAG” is -0.129; for “GGUCACGUCUCAAUCAACUCAUUCUCAGGAGUUUCCUCCUGCAAAGUCAACAGCUCGCAGUCAAG” it is 0.0992.
The figure for “GGUCACGUCUCAAUCAACUCCGCAGAGGGGGGGAAAACCCCUUUACCCUCACAUUCAACAGCUCGCAGUCAAG” is -0.026.
To “GGUCACGUCUCAAUCAACUCUUUUUCCAGGGAAAUCCCUGGUAUGUUCAACAGCUCGCAGUCAAG” belongs 0.0406.
“GGUCACGUCUCAAUCAACUCAUCUUCAGGAGUUUCCUCCUGCUAUGUCAACAGCUCGCAGUCAAG”: the binding signal (log2 fold change) stood at 0.188.
The figure for “GGUCACGUCUCAAUCAACUCAUCUUCAGGAGUUUACUCCUGUAAUUUCAACAGCUCGCAGUCAAG” is -0.0624; for “GGUCACGUCUCAAUCAACUCACACGAGGGGGGGAAAACCCCUUUACCCUCACUAUCAACAGCUCGCAGUCAAG” it is -0.338.
The figure for “GGUCACGUCUCAAUCAACUCUAAAGAGGGGGGGAAAACCCCUUUACCCUCCACUUCAACAGCUCGCAGUCAAG” is 0.118; for “GGUCACGUCUCAAUCAACUCUUCUCCAGGAGUUUACUCCUGCUUUUUCAACAGCUCGCAGUCAAG” it is 0.0701; for “GGUCACGUCUCAAUCAACUCUAUCUCAGGAGUUUUCUCCUGUUUACUCAACAGCUCGCAGUCAAG” it is 0.08.
The figure for “GGUCACGUCUCAAUCAACUCUCUAGAGGGGGGGAAAACCCCUUUUCCCUCAAUAUCAACAGCUCGCAGUCAAG” is -0.369; for “GGUCACGUCUCAAUCAACUCUUUCCCCAGGGAAAACCCUGGUUAACUCAACAGCUCGCAGUCAAG” it is 0.163.
As to “GGUCACGUCUCAAUCAACUCAGUUUCCAGGGAAACCCCUGGCAUUUUCAACAGCUCGCAGUCAAG”, the binding signal (log2 fold change) is -0.225.
For “GGUCACGUCUCAAUCAACUCAACUCCCAGGGAAAACCCUGGUAUAUUCAACAGCUCGCAGUCAAG”, the binding signal (log2 fold change) was found to be 0.0586.
To “GGUCACGUCUCAAUCAACUCUACUUCAGGAGUUUACUCCUGCAUUCUCAACAGCUCGCAGUCAAG” belongs -0.0785.
